Measured values reported in the antibiotic and cytotoxicity screens of Wong et al. (2023).
The list shows a part of the results.

Assays:
HSkMC = human skeletal muscle cells; test: cytotoxicity call (relative viability < 0.9); conditions: 10 µM
S. aureus RN4220 = test: growth inhibition call (relative growth <= 0.2); conditions: 50 µM

| Compound | cytotoxicity call (HSkMC) | growth inhibition call (S. aureus RN4220) |
| --- | --- | --- |
| CC(=O)n1nc(-c2cccnc2)nc1N | inactive | inactive |
| O=C(C[C@H]1CC[C@@H]2[C@H](COC[C@H](O)CN2C(=O)Nc2ccc(Cl)c(Cl)c2)O1)NCc1ccncc1 | inactive | inactive |
| COc1ccc(S(=O)(=O)Nc2ccc3c(c2)C(=O)N([C@H](C)CO)C[C@@H](C)[C@@H](CN(C)C(=O)C2CCCCC2)OCCCC[C@H](C)O3)cc1 | inactive | inactive |
| O=c1nc(N2CCc3ccccc3C2)cn[nH]1 | inactive | inactive |
| O[C@H]1CCN(c2nccs2)C1 | inactive | inactive |
| C[C@@H]1CN([C@@H](C)CO)C(=O)c2cccc(NC(=O)Nc3ccc(C(F)(F)F)cc3)c2O[C@H]1CN(C)Cc1ccc(-c2ccccc2)cc1 | inactive | inactive |
| CC(=O)OC[C@H]1O[C@@H](n2cc(C)c(=O)[nH]c2=O)C[C@@H]1OC(C)=O | inactive | inactive |
| COc1ccc(NC(=O)Nc2ccc3c(c2)C(=O)N([C@@H](C)CO)C[C@H](C)[C@H](CN(C)Cc2ccccc2)OCCCC[C@H](C)O3)cc1 | inactive | inactive |
| CCC(=O)NCc1nccc(N(C)C)n1 | inactive | inactive |
| C[C@H]1CN([C@@H](C)CO)C(=O)c2cc(NC(=O)Nc3ccccc3)ccc2O[C@@H]1CN(C)Cc1ccc(Cl)c(Cl)c1 | inactive | inactive |
| C[C@@H]1CN([C@H](C)CO)C(=O)c2cc(Br)cnc2O[C@H]1CN(C)C(=O)Nc1ccccc1F | inactive | inactive |
| C[C@@H]1CN([C@@H](C)CO)C(=O)Cc2cc(NC(=O)Nc3ccc(F)cc3)ccc2O[C@@H]1CN(C)Cc1ccc(Oc2ccccc2)cc1 | inactive | inactive |
| NCCC(=O)N1c2ccccc2Sc2ccccc21 | inactive | inactive |
| COc1ccc(CN(C)C[C@H]2Oc3c(NS(=O)(=O)c4cn(C)cn4)cccc3C(=O)N([C@H](C)CO)C[C@@H]2C)cc1 | inactive | inactive |
| C[C@@H]1CN([C@H](C)CO)C(=O)Cc2cc(NS(=O)(=O)c3ccc(F)cc3)ccc2O[C@@H]1CN(C)S(=O)(=O)c1cn(C)cn1 | inactive | inactive |
| C[C@@H]1CN([C@@H](C)CO)C(=O)Cc2cc(NC(=O)Cc3ccccc3)ccc2O[C@H]1CN(C)C(=O)Nc1ccc(C(F)(F)F)cc1 | inactive | inactive |
| NC(=O)NS(=O)(=O)c1ccc(N)cc1 | inactive | inactive |
| O=C(C[C@H]1C=C[C@H](NC(=O)CN2CCOCC2)[C@@H](CO)O1)NCc1cccc(F)c1 | inactive | inactive |
| COc1cccc(S(=O)(=O)N(C)C[C@@H]2Oc3cc(C4=CCCC4)ccc3S(=O)(=O)N([C@@H](C)CO)C[C@H]2C)c1 | inactive | inactive |
| C=CCC[C@@H](Cc1ccc(F)cc1)C(=O)OC[C@@H](Cc1c[nH]c2ccccc12)NC(=O)[C@@H](CC=C)CC(=O)N[C@@H](CO)Cc1ccccc1 | inactive | inactive |
| C[C@H]1CN([C@@H](C)CO)S(=O)(=O)c2ccc(C#Cc3ccc(F)cc3)cc2O[C@H]1CN(C)S(=O)(=O)c1cn(C)cn1 | inactive | inactive |
| CC(C)NC(=O)N(C)C[C@@H]1Oc2ccc(NC(=O)Cn3cnnn3)cc2C(=O)N([C@H](C)CO)C[C@H]1C | inactive | inactive |
| O=C(C[C@@H]1C[C@H]2c3cc(NC(=O)Cc4ccncc4)ccc3O[C@H]2[C@H](CO)O1)NCCN1CCCCC1 | inactive | inactive |
| Cc1noc(C)c1S(=O)(=O)Nc1ccc2c(c1)C(=O)N([C@@H](C)CO)C[C@@H](C)[C@H](CN(C)Cc1ccc(C(F)(F)F)cc1)OCCCC[C@@H](C)O2 | inactive | inactive |
| Cc1ccc(OC(=O)N(C)C[C@H]2OCc3ccccc3-c3ccccc3C(=O)N([C@H](C)CO)C[C@H]2C)cc1 | inactive | inactive |
| C[C@@H]1CN([C@H](C)CO)C(=O)c2cc(NC(=O)C3CCCCC3)ccc2O[C@@H](C)CCCCO[C@H]1CN(C)S(=O)(=O)c1ccc(Cl)cc1 | inactive | inactive |
| C[C@@H]1CCCCO[C@H](CN(C)C(=O)Nc2ccc(F)cc2)[C@H](C)CN([C@H](C)CO)C(=O)c2cc(NC(=O)c3ccncc3)ccc2O1 | inactive | inactive |
| C[C@@H]1CCCCO[C@@H](CN(C)S(C)(=O)=O)[C@H](C)CN([C@@H](C)CO)C(=O)c2cc(N(C)C)ccc2O1 | inactive | inactive |
| COCC#Cc1ccc([C@@H]2[C@@H](CO)N3C(=O)CN(C(=O)C4CCOCC4)C[C@H]23)cc1 | inactive | inactive |
